Experimental data taken from the supplement of paper PMC12217912.
The other results are listed elsewhere or left out. The full chains were built here from the parent and the listed change. Values near 0.05 are background.

B1: TEV protease; numbered along this chain (parent)
chain: MGESLFKGPRDYNPISSSICHLTNESDGHTTSLYGIGFGPFIITNKHLFRRNNGTLVVQSLHGVFKVKDTTTLQQHLVDGRDMIIIRMPKDFPPFPQKLKFREPQREERICLVTTNFQTKSMSSMVSDTSCTFPSGDGIFWKHWIQTKDGQCGSPLVSTRDGFIVGIHSASNFTNTNNYFTSVPKNFMELLTNQEAQQWVSGWRLNADSVLWGGHKVFMVKPEEPFQPVKEATQL

Variants of: B1
Test: raw area under fraction-flipped curve 0-4 h after induction (AUC4h, not background-subtracted), DNA-recorder readout of cleavage of the substrate (dimensionless); higher = more cleavage of the substrate by the protease variant
Conditions: temperature: 34 °C; time window: 0-4 h after rhamnose induction
Description: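 In vivo DNA recorder in E. coli TOP10(DE3) ΔrhaA at 34 °C. Each TEVp single-site mutant (parent TEVp 0) is paired with a single-site variant of the 7-mer TEVs (canonical ENLYFQ|S). The substrate sits between flexible linkers in a Bxb1-sfGFP-TEVs-SsrA fusion, so cleavage stabilises Bxb1 and speeds flipping of a recombination array, read by NGS. The value is the raw area under the fraction-flipped curve over 0-4 h after rhamnose induction (AUC4h), with ≥20 reads per time point. It is not background-subtracted; inactive controls average about 0.047.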
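Also: Bxb1 expression induced with 0.2% (w/v) L-rhamnose at OD600 near 0.5, cultures sampled hourly, flipped fraction per protease–substrate barcode pair counted by paired-end Illumina sequencing.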

| Variant | area with substrate ENLYCQS | area with substrate ENLYDQS | area with substrate ENLYEQS | area with substrate ENLYGQS | area with substrate ENLYHQS | area with substrate ENLYKQS | area with substrate ENLYMQS | area with substrate ENLYNQS | area with substrate ENLYPQS | area with substrate ENLYSQS | area with substrate ENLYTQS | area with substrate ENLYVQS | area with substrate ENLYWQS | area with substrate ENLYYQS | area with substrate ENLYIQS | area with substrate ENLYLQS | area with substrate ENLYQQS | area with substrate ENLYRQS |
| --- | --- | --- | --- | --- | --- | --- | --- | --- | --- | --- | --- | --- | --- | --- | --- | --- | --- | --- |
| P94I | 0.061 | 0.0617 | 0.06 | 0.0642 | 0.0647 | 0.0671 | 0.0923 | 0.0552 | 0.0501 | 0.0887 | 0.0795 | 0.132 | 0.0775 | 0.0624 |  |  |  |  |
| K98I | 0.0634 | 0.0546 | 0.0688 | 0.0623 | 0.0263 | 0.063 | 0.0811 | 0.0759 | 0.0565 | 0.0832 | 0.0907 | 0.119 | 0.0723 | 0.0675 | 0.132 | 0.0787 | 0.0663 | 0.0652 |
| E103Q | 0.113 | 0.05 | 0.0691 | 0.0624 | 0.0675 | 0.0597 | 0.078 | 0.0657 | 0.0785 |  |  | 0.103 | 0.086 | 0.0473 | 0.118 | 0.0723 | 0.062 | 0.0603 |
| Q105M | 0.11 | 0.0711 | 0.065 | 0.0732 | 0.0664 | 0.0631 | 0.0795 |  | 0.0813 | 0.0687 | 0.112 | 0.104 | 0.085 | 0.0767 |  |  |  | 0.0654 |
| E107W | 0.0717 | 0.0608 |  |  | 0.0674 |  | 0.0713 | 0.075 | 0.0857 |  |  |  | 0.0656 |  | 0.117 |  |  |  |
| C111L | 0.111 | 0.0654 | 0.063 | 0.0646 | 0.0579 |  | 0.0797 | 0.0633 | 0.077 | 0.085 | 0.0588 |  |  |  | 0.133 |  |  |  |
| N116Q | 0.0847 |  | 0.0803 | 0.0635 | 0.0585 |  | 0.124 | 0.0793 | 0.0896 | 0.0858 | 0.0769 | 0.08 | 0.0811 | 0.0623 | 0.0973 | 0.0821 | 0.0059 | 0.0613 |
| Q118T | 0.0918 | 0.0937 |  | 0.067 |  | 0.0641 | 0.0757 | 0.0711 |  |  |  | 0.129 | 0.106 | 0.0693 |  |  |  | 0.106 |
| S123M | 0.0856 | 0.063 | 0.0711 | 0.082 |  | 0.0345 | 0.0981 | 0.0598 |  | 0.0905 |  |  |  | 0.0658 | 0.112 |  | 0.0834 | 0.0566 |
| V126M | 0.117 | 0.0582 | 0.0713 | 0.065 | 0.0654 | 0.0626 |  | 0.0625 |  | 0.0718 |  | 0.0964 | 0.0828 | 0.0475 | 0.141 | 0.0823 |  | 0.0392 |
| V126W | 0.075 | 0.0954 | 0.0622 | 0.0704 | 0.0655 | 0.0857 | 0.107 | 0.0631 | 0.076 | 0.0821 | 0.0874 | 0.127 | 0.0797 |  | 0.111 | 0.0762 | 0.0654 | 0.0702 |
| T129I | 0.071 | 0.0658 | 0.0694 | 0.0675 | 0.0503 | 0.0732 |  |  | 0.0624 |  | 0.0724 | 0.0771 | 0.068 | 0.0617 | 0.117 |  |  |  |
| T129Q | 0.0902 |  |  | 0.057 | 0.0658 | 0.0569 |  | 0.0445 | 0.0678 |  |  |  | 0.0732 | 0.076 | 0.128 | 0.0851 | 0.0638 | 0.0773 |
